PubChem BioAssay AID588453 (National Center for Advancing Translational Sciences (NCATS), 2011)
Several values for one entry are separate records, joined by “and”; a condition that tells them apart may be missing. Identical values can stand only once. The whole screen tested about 390,000 compounds, of which about 4,000 (1%) were called active. The inconclusive results got no clear call from the source; some entries with a clear call stand among them for comparison. Calls come from the whole dose curve; as a rule, active = well fitted inhibition curve with a large enough effect; inconclusive = small, poorly fitted or top-dose-only effect; inactive = no such curve, though single readings can be large or run the other way. Potencies beside an inconclusive call are fits to weak or partial responses and may not hold up.

Target: Thioredoxin reductase 1, cytoplasmic (Rattus norvegicus) (UniProt O89049)
Chain of UniProt O89049 (O89049 whole entry, looked up): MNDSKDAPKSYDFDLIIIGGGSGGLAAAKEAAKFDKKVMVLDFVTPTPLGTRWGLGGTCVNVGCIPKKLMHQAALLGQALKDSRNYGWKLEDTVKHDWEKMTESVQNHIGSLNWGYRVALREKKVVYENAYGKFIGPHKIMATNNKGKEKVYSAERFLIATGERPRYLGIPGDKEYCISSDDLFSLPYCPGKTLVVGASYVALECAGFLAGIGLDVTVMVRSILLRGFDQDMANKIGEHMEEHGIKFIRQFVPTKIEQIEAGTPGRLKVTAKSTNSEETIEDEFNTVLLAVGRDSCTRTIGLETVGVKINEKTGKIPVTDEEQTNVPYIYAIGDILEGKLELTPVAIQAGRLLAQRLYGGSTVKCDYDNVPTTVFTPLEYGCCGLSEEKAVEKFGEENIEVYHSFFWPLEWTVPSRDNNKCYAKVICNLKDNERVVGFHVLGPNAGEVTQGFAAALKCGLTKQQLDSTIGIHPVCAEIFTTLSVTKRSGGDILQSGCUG
Assay: qHTS Assay for Inhibitors of Mammalian Selenoprotein Thioredoxin Reductase 1 (TrxR1): qHTS; note: nearly all actives have a fitted effect of over 65% in size
Conditions: recombinant rTrxR1, NADPH fluorescence consumption, selenite substrate; series mostly up to 114 µM
Method in brief: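 Rat TrxR1 (90 nM in the dispensed reagent) was pre-reduced with 400 uM NADPH for 5 min at room temperature, then incubated with compound for 15 min. After 400 uM selenite was added, NADPH fluorescence (Ex 340/Em 450 nm) was followed for 8 min.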
% is set by controls: 0 for no effect and ±100 for the full control effect; potency is the fitted concentration of half-maximal effect; tags give direction and shape of the fitted curve.

Structure (SMILES)	Potency	activity change, negative = inhibition
CC1CCCCN1C(=O)CSc1nc2ccccc2nc1Cc1ccc(Cl)cc1 (stereo not drawn)	inactive	
O=Cc1[nH]c2ccccc2c1N(C(=O)CCl)c1ccc([N+](=O)[O-])cc1	active: 11.2 µM	
Cc1nn(C)c(C(=O)NC(=S)Nc2ccc([N+](=O)[O-])cc2)c1Cl	inactive	
Cc1ccc2nc(CSc3nnc(-c4ccco4)o3)cc(=O)n2c1	inconclusive: 44.7 µM [inhibitor, partial curve, poor fit]	
CCN(Cc1nc(-c2ccc(OC)cc2)oc1C)S(=O)(=O)c1ccc(Cl)cc1	inactive	
CCOc1ccc(CCNC(=O)CS(=O)Cc2nc(-c3ccccc3C)oc2C)cc1OCC (stereo not drawn)	inconclusive: 70.8 µM [inhibitor, partial curve]	
Cc1c(Cl)cccc1NC(=S)N(Cc1ccco1)C(C)c1ccccn1 (stereo not drawn)	inactive	
Cc1cc(NC(=O)c2ccc(Cl)c(Cl)c2)ccc1-c1cc2ccccc2oc1=O	inactive	
COc1ccc(CCC(=O)NCc2cn3ccsc3n2)cc1	inactive	
O=C(O)c1cc(N/N=C/c2ccc(N3CCOCC3)s2)ccc1Cl	inactive	
Cn1nnnc1SCc1cn2cccnc2n1	inconclusive: 89.1 µM [inhibitor, single point]	
Cc1ccc(NC(=S)/N=C(\N)Nc2nc(C)c3cc(C)c(C)cc3n2)cc1C	inactive	
COc1ccc(C(=O)CSc2nnc(-c3ccccn3)n2Cc2ccco2)cc1	inconclusive: 50.1 µM [inhibitor, partial curve]	
O=C(Oc1ccc(Cl)cc1N1C(=O)CCC1=O)c1ccco1	inconclusive: 22.4 µM [inhibitor, partial curve, poor fit]	
CCC(NC(=O)COc1cc2c(c3oc(=O)c(C)c(C)c13)CCC(C)(C)O2)C(=O)O (stereo not drawn)	inconclusive: 25.1 µM [inhibitor, single point]	
Cc1ccc(S(=O)(=O)Cc2ccc(C(=O)N3CCN(c4cc(C)ccc4C)CC3)o2)cc1	inconclusive: 39.8 µM [inhibitor, partial curve, poor fit]	
O=[N+]([O-])c1cccc(S(=O)(=O)N2CCc3ccccc3C2)c1	inactive	
CCOC(=O)C(NC(=O)c1ccccc1Cl)(Nc1sc2c(c1C(N)=O)CCC2)C(F)(F)F (stereo not drawn)	inconclusive: 20 µM [inhibitor, full curve]	
O=c1/c(=C/c2ccco2)sc2n1CN(c1cccc(Br)c1)CN=2	inconclusive: 39.8 µM [inhibitor, partial curve, poor fit]	
CCCN1CCN(CCCNC(=O)c2cc3c(=O)oc4ccc(C)cc4c3s2)CC1	inconclusive: 89.1 µM [inhibitor, single point]	
CCCCC1(C)NC(=S)N2N1C(=S)NC2(C)CCCC (stereo not drawn)	inconclusive: 25.1 µM [inhibitor, partial curve]	
CC(C)NC(=O)c1cnc2sc(N3CCCCCC3)nn2c1=O	inactive	
CCOc1ccc(/C=N/NC(=O)C(=O)N2CCCCCC2)c2ccccc12	inconclusive: 79.4 µM [inhibitor, partial curve]	

Structure (SMILES)	Potency	activity change, negative = inhibition
Cc1ccc(CNC(=O)[C@H](C)[C@H]2C[C@]2(C)[C@H](NC(=O)OCc2ccccc2)c2ccccc2)o1	active: 56.2 µM	
CCOc1cc(C2CC(=O)N3CN(C4CCCCC4)CSC3=C2C#N)ccc1O (stereo not drawn)	inactive and inconclusive: 39.8 µM [inhibitor, partial curve, poor fit]	
CSCCC1NC2(C(=O)Nc3ccc(Cl)cc32)[C@@H]2C(=O)N(C3CCCC3)C(=O)[C@H]12 (stereo partly drawn)	inconclusive: 17.8 µM [inhibitor, partial curve, poor fit]	
CCOC(=O)c1c(C)[nH]c(C)c1C(=O)COC(=O)c1ccc(S(=O)(=O)N(CC)CC)cc1	inconclusive: 89.1 µM [inhibitor, single point]	
Cc1ccc(S(=O)(=O)N(Cc2nc(-c3ccc(Cl)cc3)no2)C2CCCCC2)cc1	inactive	
O=C(O)c1cccc(-n2cccc2/C=C/[N+](=O)[O-])c1	active: 10 µM	
Cc1sc2ncn(-n3c(C)ccc3C)c(=O)c2c1C	inconclusive: 79.4 µM [inhibitor, single point]	
CCOc1ccc2c(c1)nc(SCC(=O)c1ccc(Br)s1)n2C	active: 25.1 µM	
O=C(CCOc1ccccc1)N(Cc1cccnc1)c1nc2c(Cl)cccc2s1	inconclusive: 5.62 µM [inhibitor, full curve, poor fit]	
COC(=O)C1=C(CSc2nc3c(cc2C#N)CN(C)CC3)OC(N)=C(C#N)C1c1ccccc1F (stereo not drawn)	inconclusive: 63.1 µM [inhibitor, single point]	
O=C(CSc1nc2ccc(NC(=O)CSc3nnnn3-c3ccccc3)cc2s1)Nc1ccccc1	inactive	
CCCCC/C=C/C1=CC(=O)C[C@H](c2ccc(OC)cc2)C1	inactive	
COc1ccc(Cc2nc(C(=O)Nc3ccccc3)cs2)cc1		inactive: 21.3% [at 11.4 µM]
Cc1ccccc1/C=N/N1C(=O)CSC1=S	active: 35.5 µM	
O=C(CNC(=O)c1ccc(Cl)cc1Cl)OCn1nnc2ccccc2c1=O	inconclusive: 50.1 µM [inhibitor, partial curve]	
COc1ccccc1C1=NC(c2ccccc2)CN1c1ccccc1 (stereo not drawn)	active: 22.4 µM	
Cc1ccc(-n2c(=S)[nH]c3sc4c(c3c2=O)CCC4)cc1	inactive	
CCNC(=S)/C(=C(/[O-])c1ccc([N+](=O)[O-])cc1)[n+]1ccccc1	inconclusive: 44.7 µM [inhibitor, partial curve]	
Cc1ccc2cc3cc(C(=O)NCCN4CCOCC4)oc3nc2c1	inconclusive: 25.1 µM [inhibitor, partial curve, poor fit]	
Cc1cccc(OCC(=O)NCc2ccc3c(c2)CCN3C(=O)c2ccccc2)c1	inactive	
Oc1cc(O)c(CN2CCOCC2)cc1CN1CCOCC1	active: 11.2 µM	
CCC1(c2ccc(Cl)cc2)NC(=S)N(c2ccc(C)cc2)N1 (stereo not drawn)	inconclusive: 35.5 µM [inhibitor, partial curve, poor fit]	
CCCCCCCCCCCCCCCCCC(=O)NCC(COP(=O)([O-])OCC[N+](C)(C)C)OCC (stereo not drawn)	inconclusive: 2.67 µM [inhibitor, partial curve, poor fit] and inconclusive: 23.8 µM [inhibitor, partial curve, poor fit]	

Structure (SMILES)	Potency	activity change, negative = inhibition
COc1cc(/C=C2/C(=O)NN(c3ccc(Cl)cc3)C2=O)ccc1OC(=O)c1ccco1	inconclusive: 44.7 µM [inhibitor, partial curve, poor fit]	
O=C1N(O)C2(C=CCCC2)/C(=N\O)C12CCCCC2 (stereo not drawn)	inactive	
COc1ccccc1-n1c(CCC(=O)O)ccc1-c1ccccc1	inconclusive: 79.4 µM [inhibitor, single point]	
CCN1CCN(Cc2c(O)ccc3c2O/C(=C\c2ccc(C)cc2)C3=O)CC1	inconclusive: 89.1 µM [inhibitor, partial curve, poor fit]	
CCOC(=O)CN1c2ccccc2NC(=O)CC1C (stereo not drawn)	inconclusive: 28.2 µM [inhibitor, single point]	
CCOC(=O)/C(=C/c1ccc(OC(=O)c2ccncc2)cc1)C(C)=O	active: 6.31 µM	
COc1cc(NC(=O)CSc2ccc(-c3ccccn3)nn2)cc(OC)c1	inactive	
Cc1ccc(CNC(=O)c2ccc(CS(=O)Cc3cccc(Cl)c3)o2)cc1 (stereo not drawn)	inconclusive: 79.4 µM [inhibitor, single point]	
Oc1cccc(C=Nc2cccc3ccccc23)c1O	inconclusive: 15.8 µM [inhibitor, full curve]	
CCOc1ccc(/C=C/C2=Cc3c(sc(NC(=O)CSc4n[nH]c(N)n4)c3C#N)C(C)(C)C2)cc1	inconclusive: 31.6 µM [inhibitor, partial curve, poor fit]	
CCOc1ccc2[nH]c(=O)c(CN(CC3CCCN3CC)C(=O)NCc3ccccc3)cc2c1 (stereo not drawn)	inconclusive: 79.4 µM [inhibitor, partial curve, poor fit]	
Cc1cccnc1Sc1c([N+](=O)[O-])ncn1C	inconclusive: 17.8 µM [inhibitor, partial curve, poor fit]	
CCOC(=O)/C=C1\CN(Cc2ccc(OC)cc2)S(=O)(=O)c2ccc(C(F)(F)F)cc21	active: 25.1 µM	
CC1S/C(=N/N=C/c2ccco2)N(Cc2ccccc2)C1=O (stereo not drawn)	inconclusive: 50.1 µM [inhibitor, single point]	
CCOc1ccccc1CN1CCNC(=O)C1CC(=O)NCc1nc(C)cs1 (stereo not drawn)	inconclusive: 70.8 µM [inhibitor, partial curve]	
O=C1CCCC2=C1C(c1ccc3c(c1)OCO3)c1c([nH]n(-c3ccccc3)c1=O)N2 (stereo not drawn)	inconclusive: 35.5 µM [inhibitor, single point]	
OC[C@@H]1CCC[C@@H](n2cnc3c(=S)nc[nH]c32)O1	inconclusive: 79.4 µM [inhibitor, partial curve, poor fit]	
COC(=O)c1ccccc1NC(=S)NC(=O)C1CCCCC1	active: 15.8 µM	
COc1ccc(NC(=O)c2oc3ccccc3c2NC(=O)Cc2coc3c(C)c(C)ccc23)cc1	inactive	
COc1ccc(C(=O)NC(=S)NNC(=O)c2cccc(C)c2)cc1	inconclusive: 39.8 µM [inhibitor, partial curve]	
COc1ccc(C2=NN(C(=O)CSc3nc4ncc(Cl)cc4[nH]3)C(c3ccco3)C2)cc1 (stereo not drawn)	inconclusive: 44.7 µM [inhibitor, partial curve]	
O=C(COc1ccccc1)NNC(=S)NC(=O)c1ccccc1	inconclusive: 39.8 µM [inhibitor, partial curve]	
